tested on: SARS-CoV-2 Spike protein; assay: Western blot of SARS-CoV-2 infected Huh7.5 cell lysates probed with α-spike antibody; type: cell-based; settings: 10 μM for 2 h, then infected; human Huh7.5 cells; 48 hours post-infection as printed in b253 (FIG. 4)

SMILES	SARS-CoV-2 Spike protein level (Western blot)
N=C(Nc1ccc(I)cc1)NC1C2CC3CC(C2)CC1C3 (stereo not drawn) [IPAG]	striking decrease
Cc1cc(OCCN2CCOCC2)nn1-c1ccc2ccccc2c1 [Compound S1RA, 4-[2-[[5-methyl-1-(2-naphthalenyl)-1H-pyrazol-3-yl]oxy]ethyl]morpholine]	did not
N=C(NCCCOc1ccc(F)cc1)Nc1ccc(Cl)cc1 [CT189]	striking decrease

Source: US20230127965A1, “METHODS FOR TREATING, AMELIORATING, OR PREVENTING VIRAL INFECTIONS” (Thomas Jefferson University, priority 2020, published 2023)
